The supplement of paper PMC10126150
Sequences with one replicate were seen in a single cluster, so their values are uncertain.

Test system: ATP
Assay: switch fluorescence ratio, 500 uM ATP over buffer (Cy3 cluster intensity, sum of 5 cycles each) (fold (ratio)); higher = stronger signal-on switching upon ATP binding; sequences stand for … in TCGTCGGCAGCGTCAGATGTGTATAAGAGACAGTTTTTTTTTTTTTTTTTTTTTTTTT…TC
Settings: aptamer strand: ATP DNA aptamer (quencher-CACCTGGGGGAGTATTGCGGAGGAAGG + anchor), 100 nM annealed; ATP concentration: 500 uM; one replicate
Summary of the method: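 Exposure to 500 uM ATP lasted 15 min at 22 °C before imaging, and a selection-buffer image was taken beforehand, for Cy3-labelled switching-strand clusters on a modified Illumina MiSeq flow-cell annealed to 100 nM quencher-labelled ATP aptamer. Five buffer/ATP cycles were run with NaOH stripping and re-annealing between them. The fluorescence ratio per cluster is summed target-cycle over summed buffer-cycle Cy3 intensity, averaged per switch-domain sequence. Clusters outside 100-1000 RFU were excluded.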

GCATGGCGGT was tested, and the switch fluorescence ratio was 0.996.
For TCCAGCAAGG, the switch fluorescence ratio was 1.55.
GTGAGTTGTT was tested, and the switch fluorescence ratio was 1.01.
CTCCTGTATC gave a switch fluorescence ratio of 1.72.
For GCTTTTAATA, the switch fluorescence ratio was 0.99.
GCCTATACAT gave a switch fluorescence ratio of 0.98.
Work on TGTTTGCCTA yielded a switch fluorescence ratio of 0.984.
In the case of TTCGTGTGTG, the switch fluorescence ratio was 1.01.
CCGGGCTGAG gave a switch fluorescence ratio of 1.11.
With CGTTTATACT the switch fluorescence ratio was 1.24.
Work on CAAGTGGAGA yielded a switch fluorescence ratio of 1.01.
Sequence TGTCCAGAA has a switch fluorescence ratio of 1.03.
In the case of CTTCACTGTG, the switch fluorescence ratio was 1.01.
Work on GAAGCCATTT yielded a switch fluorescence ratio of 1.01.
CCTCATATGA showed a switch fluorescence ratio of 1.07.
In the case of GCTCCACGTA, the switch fluorescence ratio was 1.25.
ATCGTTAAGG was tested, and the switch fluorescence ratio was 0.967.
Work on GAATATTAGA yielded a switch fluorescence ratio of 1.03.
TATCCAATCG was tested, and the switch fluorescence ratio was 0.987.
Sequence ATGCTGTTTC has a switch fluorescence ratio of 0.982.
Work on TAGTGCATCG yielded a switch fluorescence ratio of 1.05.
Work on GCCGAATGTT yielded a switch fluorescence ratio of 0.99.
GTGTGTATAA gave a switch fluorescence ratio of 0.976.
In the case of AAGAAAACGT, the switch fluorescence ratio was 1.09.
With TTGGGATGTC the switch fluorescence ratio was 0.981.
With ACTCAGTGTG the switch fluorescence ratio was 1.11.
GGAGCTGCAT was tested, and the switch fluorescence ratio was 1.03.
Sequence CCAGCAACTG has a switch fluorescence ratio of 1.24.
For TTTTCCTGTT, the switch fluorescence ratio was 1.03.
TCCGGGGCAT gave a switch fluorescence ratio of 2.85.
With CAGAATTATG the switch fluorescence ratio was 1.02.
For TCCTTCTGGT, the switch fluorescence ratio was 1.03.
TTTCTGGACA showed a switch fluorescence ratio of 0.993.
Sequence AGGTGCAATG has a switch fluorescence ratio of 0.987.
Work on CGGAAATCAA yielded a switch fluorescence ratio of 1.04.
Work on CTTTTTTAGT yielded a switch fluorescence ratio of 0.972.
ATGGGCTCTG gave a switch fluorescence ratio of 1.05.
For TGATGAGCTT, the switch fluorescence ratio was 1.01.
In the case of TGATTAGTAC, the switch fluorescence ratio was 0.983.
TAGTTGCCGG was tested, and the switch fluorescence ratio was 0.971.
Work on ACAGACTTGG yielded a switch fluorescence ratio of 1.01.
Work on TCAGGACCAG yielded a switch fluorescence ratio of 1.
With GGAAGAGCTG the switch fluorescence ratio was 1.09.
Work on AAGCCGGTCG yielded a switch fluorescence ratio of 1.01.
AGGTAGTGAA gave a switch fluorescence ratio of 0.975.
Work on ACGTTGTGTT yielded a switch fluorescence ratio of 0.974.
TATCTGTCCA gave a switch fluorescence ratio of 0.954.
Sequence GGTGGCAGAC has a switch fluorescence ratio of 1.07.
With TAGGATAAGA the switch fluorescence ratio was 1.04.
TTGCTTCGTG was tested, and the switch fluorescence ratio was 0.96.
In the case of CATCCCATCT, the switch fluorescence ratio was 1.12.
AAAGTCTGAA showed a switch fluorescence ratio of 0.971.
For CGTTCTTACT, the switch fluorescence ratio was 1.05.
Sequence TTCGAGCAGC has a switch fluorescence ratio of 1.05.
In the case of CATTAGATCT, the switch fluorescence ratio was 1.05.
TCATCCCATA showed a switch fluorescence ratio of 1.72.
Work on CGTCGTCAGC yielded a switch fluorescence ratio of 1.07.
In the case of GGACTGGG, the switch fluorescence ratio was 0.959.
Work on ACATCATTCA yielded a switch fluorescence ratio of 1.
For GACGCATAAT, the switch fluorescence ratio was 4.37.
With GAGATATGTA the switch fluorescence ratio was 1.02.
With GCGTCTTCGG the switch fluorescence ratio was 1.
ATCTGCCGAG gave a switch fluorescence ratio of 1.05.
With CGAGAGGTTT the switch fluorescence ratio was 0.972.
ATTTGCCTCG gave a switch fluorescence ratio of 1.05.
With TTATCACAGC the switch fluorescence ratio was 0.955.
Work on ATGAAGGCAG yielded a switch fluorescence ratio of 1.01.
GTCGATTTGG showed a switch fluorescence ratio of 1.
Sequence CTTTTCAGC has a switch fluorescence ratio of 1.03.
TGCTGCTG was tested, and the switch fluorescence ratio was 0.965.
TCTTAGTTTT was tested, and the switch fluorescence ratio was 0.955.
ATACAGACAC gave a switch fluorescence ratio of 1.21.
With GGTTAATTTG the switch fluorescence ratio was 1.
AAATTACACT gave a switch fluorescence ratio of 1.08.
For TTTGAGTATG, the switch fluorescence ratio was 0.973.
In the case of CGAGGTCGTC, the switch fluorescence ratio was 0.966.
GCACCCTTCG gave a switch fluorescence ratio of 1.26.
For CAGCCGCTAG, the switch fluorescence ratio was 2.87.
In the case of GTGACGACAG, the switch fluorescence ratio was 0.991.
CAGCGGATTA showed a switch fluorescence ratio of 1.01.
CAATACAGCA gave a switch fluorescence ratio of 1.22.
With ACTGTTGTAT the switch fluorescence ratio was 0.911.
For AGACTCTTAC, the switch fluorescence ratio was 1.21.
TCGTAGACAC was tested, and the switch fluorescence ratio was 1.06.
TTTGGGCATC was tested, and the switch fluorescence ratio was 1.01.
GAGTAGAGAT showed a switch fluorescence ratio of 1.
Work on GAGACGGTGT yielded a switch fluorescence ratio of 1.06.
TGGTTTAAG was tested, and the switch fluorescence ratio was 1.02.
ACATCAAATC showed a switch fluorescence ratio of 1.04.
Sequence ACATCTCGGC has a switch fluorescence ratio of 0.993.
For TCCAAGAGCA, the switch fluorescence ratio was 1.13.
Work on AGGAGATTTG yielded a switch fluorescence ratio of 0.988.
In the case of CTGTGGGTAT, the switch fluorescence ratio was 1.03.
For CATTATTCAA, the switch fluorescence ratio was 0.996.
For TAATTATCCC, the switch fluorescence ratio was 1.08.
With CTTTATTATA the switch fluorescence ratio was 1.03.
TGCCTCTGGC was tested, and the switch fluorescence ratio was 1.
In the case of AAGTCGGAA, the switch fluorescence ratio was 0.964.
AAACCTATAT showed a switch fluorescence ratio of 0.997.
GAAACATAAA was tested, and the switch fluorescence ratio was 1.02.
CTTAGGCCTA gave a switch fluorescence ratio of 1.01.
TAGCCTTGAA was tested, and the switch fluorescence ratio was 0.961.
Sequence TTTGTACCTA has a switch fluorescence ratio of 1.03.
With GGTGAGTAAT the switch fluorescence ratio was 1.
In the case of TGATTTCTAG, the switch fluorescence ratio was 0.991.
ATCTCAGGGA gave a switch fluorescence ratio of 0.995.
For TCAAAGTAAC, the switch fluorescence ratio was 1.02.
In the case of GATAATTTCG, the switch fluorescence ratio was 1.04.
For TTTCAGGAAT, the switch fluorescence ratio was 1.41.
For AGTCCCTCTA, the switch fluorescence ratio was 0.988.
TCTAGCTGTG showed a switch fluorescence ratio of 1.03.
GTTTTCTCAG showed a switch fluorescence ratio of 1.01.
With GTTTGGAGCG the switch fluorescence ratio was 1.01.
AATTTATATG gave a switch fluorescence ratio of 1.05.
Work on TATAATGAAC yielded a switch fluorescence ratio of 0.981.
GAATTACCTT gave a switch fluorescence ratio of 1.06.
ATGGCATGTT showed a switch fluorescence ratio of 1.03.
In the case of AGAGGCCAGT, the switch fluorescence ratio was 0.978.
CTGTTCAAGT was tested, and the switch fluorescence ratio was 1.02.
TAGAAGGGTG gave a switch fluorescence ratio of 1.01.
TGGTCTGGGT gave a switch fluorescence ratio of 0.973.
With GAGCTATCGA the switch fluorescence ratio was 1.03.
For CGACTCATTC, the switch fluorescence ratio was 2.68.
In the case of GCGATATAAG, the switch fluorescence ratio was 1.01.
With AGCGGTGGCT the switch fluorescence ratio was 0.97.
Sequence CATATAAGTG has a switch fluorescence ratio of 1.01.
GATATGATGC was tested, and the switch fluorescence ratio was 1.02.
With AAAAATGTAG the switch fluorescence ratio was 1.02.
For GGGGAGCAGG, the switch fluorescence ratio was 1.09.
TGATATAATG was tested, and the switch fluorescence ratio was 1.03.
Sequence TTATTTAATG has a switch fluorescence ratio of 0.997.
With CAATTTATG the switch fluorescence ratio was 1.
TTTTATCGTC was tested, and the switch fluorescence ratio was 1.01.
In the case of GTTTTAGGTA, the switch fluorescence ratio was 0.963.
In the case of ATCACCAGG, the switch fluorescence ratio was 2.29.
Work on CGCTCATGTT yielded a switch fluorescence ratio of 1.01.
Sequence ATAGAAAGAT has a switch fluorescence ratio of 1.
Work on TCCCGTTTTC yielded a switch fluorescence ratio of 1.14.
Sequence AACATAGGCT has a switch fluorescence ratio of 0.97.
TTTGGCCTGC showed a switch fluorescence ratio of 1.02.
TTAATCAGAA showed a switch fluorescence ratio of 0.96.
With ACACTTTAGG the switch fluorescence ratio was 1.02.
Sequence ATTAATTATA has a switch fluorescence ratio of 1.01.
Work on TCTCAACGTG yielded a switch fluorescence ratio of 1.02.
TAGGATTAGT gave a switch fluorescence ratio of 0.999.
Work on CCTAATTCGT yielded a switch fluorescence ratio of 1.03.
In the case of CTCCGGATTT, the switch fluorescence ratio was 2.22.
For GTGCATAGTG, the switch fluorescence ratio was 0.983.
GGATGAATTA showed a switch fluorescence ratio of 0.973.
CATTAACGTC was tested, and the switch fluorescence ratio was 1.13.
With GCGGCGCGG the switch fluorescence ratio was 1.03.
Work on GTACATTAGG yielded a switch fluorescence ratio of 1.08.
In the case of CAAGGTAAGA, the switch fluorescence ratio was 1.03.
Work on TAATTCGCGC yielded a switch fluorescence ratio of 1.04.
With ACTGGTGCGC the switch fluorescence ratio was 1.02.
CAAAAAGGCA gave a switch fluorescence ratio of 1.04.
In the case of CCAGCTGGTC, the switch fluorescence ratio was 0.981.
